About 31,000 (8.9%) of roughly 350,000 compounds were called active. Inconclusive means that the source gave no clear call. Such entries were picked first, then a sample of the others. The call rests on the fitted dose curve; in most records, active means well fitted inhibition curve with a large enough effect; inconclusive means small, poorly fitted or top-dose-only effect; inactive means no such curve, though single readings can be large or run the other way. Potencies of inconclusive entries are doubtful fits and often do not repeat.
What follows are molecules tested against Histone-lysine N-methyltransferase EHMT2 (Homo sapiens) (UniProt Q96KQ7) (assay: qHTS Assay for Inhibitors of Histone Lysine Methyltransferase G9a). Details: G9a H3K9 monomethylation, AlphaScreen, 2 h; activity, negative = inhibition: at 59 µM (top of the series) unless noted.
Sequence of UniProt Q96KQ7 (Q96KQ7 whole entry, looked up): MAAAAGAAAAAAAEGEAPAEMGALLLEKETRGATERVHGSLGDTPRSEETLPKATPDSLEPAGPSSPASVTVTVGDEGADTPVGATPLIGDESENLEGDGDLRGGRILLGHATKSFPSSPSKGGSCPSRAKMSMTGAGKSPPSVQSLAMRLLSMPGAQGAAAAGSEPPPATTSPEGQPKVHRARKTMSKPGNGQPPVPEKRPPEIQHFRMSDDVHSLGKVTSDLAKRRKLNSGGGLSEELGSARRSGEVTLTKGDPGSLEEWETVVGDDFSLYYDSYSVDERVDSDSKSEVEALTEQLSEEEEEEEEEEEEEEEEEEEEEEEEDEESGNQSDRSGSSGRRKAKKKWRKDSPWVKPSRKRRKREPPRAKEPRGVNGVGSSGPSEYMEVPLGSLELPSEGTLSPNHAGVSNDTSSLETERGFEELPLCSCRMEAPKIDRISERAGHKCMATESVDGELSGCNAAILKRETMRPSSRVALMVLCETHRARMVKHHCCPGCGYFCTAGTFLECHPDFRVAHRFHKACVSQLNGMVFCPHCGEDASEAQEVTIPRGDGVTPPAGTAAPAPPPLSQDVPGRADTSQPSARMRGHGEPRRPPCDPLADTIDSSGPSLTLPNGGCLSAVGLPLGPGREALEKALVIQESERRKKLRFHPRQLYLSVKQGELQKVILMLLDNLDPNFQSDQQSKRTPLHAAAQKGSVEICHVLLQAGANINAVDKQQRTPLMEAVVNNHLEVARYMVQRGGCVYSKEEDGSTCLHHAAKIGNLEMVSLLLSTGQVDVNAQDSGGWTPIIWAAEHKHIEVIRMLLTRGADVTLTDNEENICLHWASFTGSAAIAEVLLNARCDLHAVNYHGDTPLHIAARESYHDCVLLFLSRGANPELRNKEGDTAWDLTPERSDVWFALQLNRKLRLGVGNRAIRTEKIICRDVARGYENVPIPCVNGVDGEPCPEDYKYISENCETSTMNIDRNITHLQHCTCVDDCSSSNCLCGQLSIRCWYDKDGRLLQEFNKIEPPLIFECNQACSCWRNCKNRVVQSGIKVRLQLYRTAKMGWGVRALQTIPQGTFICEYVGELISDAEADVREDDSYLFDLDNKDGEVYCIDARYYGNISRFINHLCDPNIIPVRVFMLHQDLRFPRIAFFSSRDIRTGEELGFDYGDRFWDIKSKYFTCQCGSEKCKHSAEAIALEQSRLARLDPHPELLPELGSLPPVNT
How it was run: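 Readings reflect AlphaScreen signal from monomethyl-H3K9 antibody detection. HMT at 20 nM; substrate b-H3K9 500 nM; cofactor SAM 20 uM; 2 h RT reaction; compounds tested as titrations in qHTS with 15 min preincubation.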
In the case of `CCN(CCO)c1nc(SC)nc2c1sc1nc(-c3ccco3)c3c(c12)CCC3`, the Potency is reported as inconclusive: 12.6 µM [inhibitor, partial curve, poor fit]. `CCc1ccc(OCC(O)CN2CCCC2)cc1` (stereo unspecified) was tested, and the Potency was “inactive”. With `Cc1nn(CC(=O)NCCc2ccccc2)c(=O)c2nn(-c3ccccc3)c(C)c12` the Potency was “inactive”. In the case of `CC[C@H](C)[C@@H](C(=O)NCCCCCCCCCCC(=O)N1CCNCC1)n1cc(CCCCN=C(N)N)nn1`, the activity, negative = inhibition is reported as inactive: -9.74% [at 2.33 µM]. `CCOC(=O)C1NN=C(C(=O)c2ccccc2)C1c1ccc(OC)cc1` (stereo unspecified) was tested, and the Potency was “inactive”. In the case of `NS(=O)(=O)c1ccc(-c2ccc(/C=C3\NC(=S)NC3=O)o2)cc1`, the Potency is reported as active: 8.91 µM. With `O=C(c1ccco1)N1CCN(Cc2cc(=O)c(OCc3c(F)cccc3Cl)co2)CC1` the Potency was inconclusive: 89.1 µM [inhibitor, single point]. With `COc1ccc(N2C(=O)CC(Nc3ccc(N4CCOCC4)cc3)C2=O)c(OC)c1` (stereo unspecified) the Potency was inconclusive: 2.24 µM [inhibitor, partial curve, poor fit]. With `Fc1ccc(CSc2nncn3c2cc2occc23)c(Cl)c1` the Potency was inconclusive: 8.91 µM [inhibitor, partial curve]. In the case of `COc1ccc2c(c1)C(c1ccccc1)=NNC(c1ccco1)=N2`, the Potency is reported as inconclusive: 28.2 µM [inhibitor, partial curve, poor fit]. In the case of `CCOc1ccc(CCNC(=O)c2cc3sccc3n2CC)cc1OCC`, the Potency is reported as inconclusive: 20 µM [inhibitor, partial curve, poor fit]. In the case of `CS(=O)(=O)NCCn1ccc2ccccc21`, the Potency is reported as inconclusive: 89.1 µM [inhibitor, single point]. For `CC1CCN(C(=O)c2ccc3c(c2)NC(=O)CN3)CC1`, the Potency was inconclusive: 100 µM [inhibitor, single point]. With `Cc1nc2ccc(S(=O)(=O)N(C)CC(=O)NCc3ccc4c(c3)OCO4)cc2s1` the activity, negative = inhibition was inactive: 10.5% [at 2.33 µM]. In the case of `CCCCc1cc2c(cn1)=C(OC(=O)c1cnc3ccccc3n1)C(C)(OC(=O)CC)C(=O)C=2` (stereo unspecified), the Potency is reported as inconclusive: 10 µM [inhibitor, single point]. `Cc1cc(C)c(C#N)c(SCC(=O)CC(=O)OC(C)C)n1` was tested, and the Potency was inconclusive: 0.447 µM [inhibitor, full curve, poor fit]. With `O=C(O)CCCCCNC(=O)CSc1nnc(-c2ccco2)n1-c1ccccc1` the Potency was “inactive”. With `CCN(c1ccc(OC)cc1)S(=O)(=O)c1ccc2c(c1)CC(C)N2C(=O)C1CC1` (stereo unspecified) the Potency was “inactive”. With `CCC(=O)Nc1nc2ccccc2n1CCN1CCOCC1` the Potency was inconclusive: 35.5 µM [inhibitor, single point]. For `CC[N+](CC)(CC)CC(=O)Nc1ccc(SC(F)F)cc1`, the Potency was inconclusive: 50.1 µM [inhibitor, partial curve, poor fit]. `CN(C)c1ccc(/C=C/C(=O)c2ccccc2)cc1[N+](=O)[O-]` was tested, and the Potency was inconclusive: 25.1 µM [inhibitor, single point]. In the case of `COc1ccc(NC(=O)CNC(=O)Cc2cccc3ccccc23)c(OC)c1`, the Potency is reported as inconclusive: 89.1 µM [inhibitor, single point]. With `S=c1[nH]nc(CNc2cccc(Cl)c2)o1` the Potency was active: 17.8 µM. In the case of `CCOc1ccc(S(=O)(=O)Nc2ccccc2C(=O)Nc2ccccc2N2CCOCC2)cc1`, the Potency is reported as inconclusive: 3.98 µM [inhibitor, full curve, poor fit]. For `COC(=O)c1nnn(CC(=O)Nc2c(C)cccc2C)c1N`, the Potency was “inactive”. `CC(=O)c1ccc(NC(=O)NNS(=O)(=O)c2ccc(F)cc2)cc1` was tested, and the Potency was “inactive”. For `O=C(c1ccc2snnc2c1)N1CCSCC1`, the Potency was “inactive”. For `FC(F)(F)c1cc(-c2ccco2)nc(NCc2cccnc2)n1`, the activity, negative = inhibition was inconclusive: -60.9% [inhibitor]. In the case of `Cc1ccccc1Nc1nc(NCc2ccco2)c2ccccc2n1`, the Potency is reported as inconclusive: 39.8 µM [inhibitor, single point]. `Cc1cccc(N=C2NC(=O)c3cc([N+](=O)[O-])ccc32)c1` was tested, and the Potency was inconclusive: 50.1 µM [inhibitor, partial curve]. With `Cc1ccc(/C=C/C(=O)OCc2nc(N)nc(Nc3ccccc3C)n2)o1` the Potency was active: 50.1 µM. In the case of `CCOc1ccc2nc3cc(NCc4ccc(OC)cc4)ccc3c(N)c2c1`, the Potency is reported as active: 35.5 µM. `O=C(COC(=O)C1CCN(c2ccc(C(F)(F)F)cn2)CC1)NCc1ccc(Cl)cc1Cl` was tested, and the Potency was “inactive”. In the case of `CCOC(=O)C(=O)c1csc(NC(=O)COc2ccc(N(C)S(=O)(=O)c3ccc(F)cc3)cc2)n1`, the Potency is reported as inconclusive: 89.1 µM [inhibitor, single point]. In the case of `CC(Nc1ccnc2cc(Cl)ccc12)c1ccc(S(N)(=O)=O)cc1` (stereo unspecified), the Potency is reported as inconclusive: 79.4 µM [inhibitor, partial curve, poor fit]. With `CCC(C)(C)C1CCC(=NNC(=S)Nc2cccnc2)CC1` (stereo unspecified) the Potency was active: 7.94 µM. `Cc1ccccc1OCC(=O)NCC(C)(C)N1CCOCC1` was tested, and the Potency was inconclusive: 39.8 µM [inhibitor, partial curve, poor fit]. For `CCCCn1c(N)c(N(CCOC)C(=O)c2ccc(Cl)c(S(=O)(=O)N3CCCCC3)c2)c(=O)[nH]c1=O`, the Potency was inconclusive: 89.1 µM [inhibitor, single point]. `Cc1ccc2nc3c(cc(C(=O)NCC4CCCO4)n3C)c(=O)n2c1` (stereo unspecified) was tested, and the Potency was inconclusive: 39.8 µM [inhibitor, single point]. In the case of `O=C(CSc1ccc(Cl)cc1)NN=C1CCCCCC1`, the Potency is reported as inconclusive: 35.5 µM [inhibitor, full curve]. For `O=C(Oc1ccccc1)c1c(Cl)cccc1P(=O)(O)O`, the Potency was inconclusive: 79.4 µM [inhibitor, single point]. `O=C1CSC(=S)N1/N=C/c1cccnc1` was tested, and the Potency was active: 7.08 µM. In the case of `O=C1c2ccccc2N2C(=O)c3ccccc3C2N1Cc1ccco1` (stereo unspecified), the Potency is reported as inconclusive: 39.8 µM [inhibitor, single point]. In the case of `COC(=O)c1cccc(NC(=O)CC2C(=O)NCCN2C(=O)Nc2cc(C)cc(C)c2)c1` (stereo unspecified), the Potency is reported as “inactive”. With `CC1CCCC(C)N1C(=O)CSc1nnnn1Cc1ccccc1` (stereo unspecified) the Potency was inconclusive: 89.1 µM [inhibitor, partial curve, poor fit]. With `Cc1ccccc1C(=O)NC(CC(C)C)C(=O)NN1C(=O)c2ccccc2C1=O` (stereo unspecified) the Potency was “inactive”. `CC(=O)N1CSCC1C(=O)O` (stereo unspecified) was tested, and the Potency was inconclusive: 39.8 µM [inhibitor, partial curve, poor fit]. `CCOC(=O)N1CCC(NC(=O)c2ccc(CS(=O)(=O)c3ccccc3C)o2)CC1` was tested, and the Potency was inconclusive: 79.4 µM [inhibitor, single point]. With `O=S(=O)(NCc1ccco1)c1cccc2cccnc12` the Potency was inconclusive: 35.5 µM [inhibitor, single point]. For `CC(=O)Nc1ccc(NC(=O)c2c(C)nn(-c3ccccc3)c2Cl)cc1C`, the Potency was inconclusive: 56.2 µM [inhibitor, partial curve]. In the case of `CCc1ccc(NC(=O)C2CCCN2S(=O)(=O)c2ccc3nc(-c4ccccc4)[nH]c3c2)cc1` (stereo unspecified), the Potency is reported as “inactive”. With `O=C(CSc1nn(-c2ccccc2)c(=S)s1)Nn1cnnc1` the Potency was “inactive”. For `N/C(=N\C(=S)Nc1ccccc1)c1ccccc1`, the activity, negative = inhibition was inactive: 15% [at 2.33 µM]. With `Cc1csc2nc(COc3ccc(NC(=O)C(C)C)cc3)cc(=O)n12` the Potency was “inactive”. In the case of `O=C(COc1cccc2c1CCN(Cc1ccc(Br)cc1)C2=O)N1CCOCC1`, the Potency is reported as “inactive”. `COC(=O)c1c(C)oc2c1cc(NS(=O)(=O)c1ccc(C(=O)O)cc1)c1ccccc12` was tested, and the Potency was active: 35.5 µM. For `CCOC(=O)c1c(NC(=O)CSc2nc(-c3ccc(OC)cc3)cc(C(F)(F)F)n2)sc(C)c1C`, the Potency was active: 4.47 µM. `Cn1c(=O)n(CC(=O)O)c(=O)c2c1nc1n2CCCN1c1ccc(Cl)cc1` was tested, and the Potency was “inactive”. In the case of `NC(=O)C1CCN(C(=O)c2cc3n(n2)C(C(F)(F)F)CC(c2ccco2)N3)CC1` (stereo unspecified), the Potency is reported as inconclusive: 35.5 µM [inhibitor, single point]. `COc1ccc(S(=O)(=O)NCCCCCC(=O)O)cc1C(=O)O` was tested, and the Potency was inconclusive: 89.1 µM [inhibitor, single point]. `CC(NC(=O)/C(=C\c1ccco1)NC(=O)c1ccccc1Br)C(=O)O` (stereo unspecified) was tested, and the Potency was inconclusive: 28.2 µM [inhibitor, partial curve, poor fit]. In the case of `COC(=O)C1=C(O)/C(=C\c2sccc2C)N=C1C`, the Potency is reported as “inactive”. `CCc1ccccc1NC(=O)c1ccc(Cn2nc(N3CCN(c4ccccc4)CC3)ccc2=O)o1` was tested, and the Potency was inconclusive: 28.2 µM [inhibitor, single point]. `O=C(Nc1nc(-c2ccccc2)cs1)c1ccc(N2CCOCC2)c([N+](=O)[O-])c1` was tested, and the Potency was inconclusive: 39.8 µM [inhibitor, single point]. For `Nc1nc(SCC(=O)c2ccc(Br)s2)n[nH]1`, the Potency was inconclusive: 50.1 µM [inhibitor, partial curve, poor fit]. With `Cc1ccc(NC(=O)Nc2cn(C)c(=O)c3ccccc23)c(Cl)c1` the Potency was inconclusive: 28.2 µM [inhibitor, single point]. `c1ccc(CN2CCN(c3nc(NCc4ccco4)c4ccccc4n3)CC2)cc1` was tested, and the Potency was inconclusive: 22.4 µM [inhibitor, partial curve, poor fit]. In the case of `CCCn1c2ccccc2c2cnn(CC(=O)N(CC)c3cc(C)ccc3C)c(=O)c21`, the Potency is reported as “inactive”. In the case of `Cc1ccc(CNC(=O)Cn2nc(N3CCN(c4ccccc4)CC3)ccc2=O)cc1`, the Potency is reported as “inactive”. `CCN(c1ccccc1)S(=O)(=O)c1ccc(Cl)c(C(=O)NCCc2ccc(OC)cc2)c1` was tested, and the Potency was inconclusive: 39.8 µM [inhibitor, single point]. In the case of `Cc1nnc(SCC(=O)NC(C)c2ccccc2)[nH]c1=O` (stereo unspecified), the Potency is reported as inconclusive: 3.55 µM [inhibitor, partial curve, poor fit].

Reference: PubChem BioAssay AID504332 (National Center for Advancing Translational Sciences (NCATS), 2011)
Further: nearly all actives have a fitted effect of over 75% in size.
On the % scale 0 is the no-effect control and ±100 the full control effect; potency means the concentration at half of the fitted maximal effect; tags describe the fitted curve by direction and shape.
